{
  "source": "the supplement of paper PMC11417369",
  "note": "± gives the standard deviation of the averaged measurements. The list shows a part of the results.",
  "data": [
    {"tested_on": "PfAP2-I AP2 domain 3 (GST-tagged)", "assay": "gcPBM binding intensity (ln(normalized median fluorescence intensity)); higher = stronger DNA binding", "outline": "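GST-fused DNA-binding domains of P. falciparum, expressed in E. coli, were applied at about 25 μg on average for 1 h to an Agilent 4 × 180k array of primer-extended double-stranded 36-bp intergenic genomic probes and negative controls. Binding intensity is the highest Masliner-normalised natural-log median intensity across replicate spots of either probe orientation, measured with Alexa488 anti-GST antibody and a 488 nm scan.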", "values": [
      {"sequence": "TATAATATAAGGATCACACACAAACACCCATATATA [CACACA_site4468]", "gcPBM binding intensity (ln)": "7.92 ± 0.36"},
      {"sequence": "CATACATACATACATACACACATACCTATATTTATA [CACACA_site6769]", "gcPBM binding intensity (ln)": "8.79 ± 0.65"},
      {"sequence": "TTAATAACAAAATAAACACACATATATAAATACCCA [CACACA_site4960]", "gcPBM binding intensity (ln)": "7.73 ± 0.52"},
      {"sequence": "AGCAAAAAAAAAAAAAAAAAAAAAATAATAAAAAAT [TGCATGCA_negctrl_site202]", "gcPBM binding intensity (ln)": "7.54 ± 0.54"},
      {"sequence": "GTTTTCTAGTGGGGGTGTACATATTTATATTTAATA [XGTACX_site8378]", "gcPBM binding intensity (ln)": "10.8 ± 0.23"},
      {"sequence": "ATATATATATAATAAGTGCAAAAAAAAGAAAAAAAT", "gcPBM binding intensity (ln)": "10.18 ± 0.035"},
      {"sequence": "TTTTTTTTTTTTGAGGTGCATATATCAGATCAATAT", "gcPBM binding intensity (ln)": "10.8 ± 0.58"},
      {"sequence": "CATATATTAATATGTACACACATTAATAAAAAAAAA [CACACA_site7504]", "gcPBM binding intensity (ln)": "7.88 ± 0.29"},
      {"sequence": "AGTATTCATAAAAATACACACATGGAAAAATAAAAT [CACACA_site1454]", "gcPBM binding intensity (ln)": "7.89 ± 0.69"},
      {"sequence": "ATTGTGGATATTCTTACACACAAATTTATTTATAAA [CACACA_site7267]", "gcPBM binding intensity (ln)": "7.52 ± 0.47"},
      {"sequence": "TAAGAAATTGAGCGCACACATACATCTGTGGGATGG [CACACA_site1548]", "gcPBM binding intensity (ln)": "8.19 ± 0.46"},
      {"sequence": "ATGTAAATATTTTGTATGCACTTTGATGCATCTTTT", "gcPBM binding intensity (ln)": "9.995 ± 0.078"},
      {"sequence": "TTTTTTTCTTCTTTTCTCTTAAAAATATTGAATATT [CACACA_negctrl_site1762]", "gcPBM binding intensity (ln)": "7.5 ± 0.67"},
      {"sequence": "TCAAGAGTTATATAAACACACATACATACAGACATA [CACACA_site6998]", "gcPBM binding intensity (ln)": "7.79 ± 0.43"},
      {"sequence": "AAAAAAAAAAAAAAAAAAAAAAAAAAAAAAAAAAAG [CACACA_negctrl_site292]", "gcPBM binding intensity (ln)": "10.4 ± 0.2"},
      {"sequence": "TATTCGAACAAAAATACATGCACATATGCATAATAA [TGCATGCA_site171]", "gcPBM binding intensity (ln)": "9.48 ± 0.45"},
      {"sequence": "TTTTCCAGTAAATATTTTTTTATAATATTTATATAT [CACACA_negctrl_site387]", "gcPBM binding intensity (ln)": "7.66 ± 0.54"},
      {"sequence": "AAATAAAATAAAATACGTACCTATTGTGCGTATTAA [XGTACX_site2912]", "gcPBM binding intensity (ln)": "7.78 ± 0.57"},
      {"sequence": "AATAATTTCCAAAAATGTACATATATTTACATATAT [XGTACX_site1790]", "gcPBM binding intensity (ln)": "7.72 ± 0.38"},
      {"sequence": "ATTTTAACTCCCCTTAATCTATTGTATATATATATA [CACACA_negctrl_site208]", "gcPBM binding intensity (ln)": "9.14 ± 0.014"},
      {"sequence": "TAATAAATGTTATTAGTGCATAATAGATAATATATT", "gcPBM binding intensity (ln)": "10.8 ± 0.64"},
      {"sequence": "AGCCACTTAAAATACACACACACCAAAAAAAAAAAA [CACACA_site5497]", "gcPBM binding intensity (ln)": "8.06 ± 0.59"},
      {"sequence": "TATTTTATTTATTGAAGTACATTATACAAAAATAAA [XGTACX_site4824]", "gcPBM binding intensity (ln)": "7.78 ± 0.16"},
      {"sequence": "TTATTTGTTTGTTGGATGCTTTTTTTTTTTTTTTTT [CACACA_negctrl_site1697]", "gcPBM binding intensity (ln)": "9.09 ± 0.56"},
      {"sequence": "TACATATATATAATATGTACTTATAATATGTATTTA [XGTACX_site2162]", "gcPBM binding intensity (ln)": "7.38 ± 0.18"},
      {"sequence": "AAAAGTGATAATAAGAGTACATAAAAAATTTATTAT [XGTACX_site8037]", "gcPBM binding intensity (ln)": "7.95 ± 0.43"},
      {"sequence": "ATTTCCCACTTGTGTGTGCGCATGTGTATATATTTA [GTGCAC_site9949]", "gcPBM binding intensity (ln)": "8.53 ± 1"},
      {"sequence": "AAATAATTTATAAATAAATACATTGTTACTTTTTCT [GTGCAC_negctrl_site639]", "gcPBM binding intensity (ln)": "7.46 ± 0.66"},
      {"sequence": "TATTCTATACTATATTGTACTATAATATAATATACT [XGTACX_site797]", "gcPBM binding intensity (ln)": "7.75 ± 0.38"},
      {"sequence": "TCTTCATATGTTTACTGTACGAGAAAAAAAAAAAAA [XGTACX_site6418]", "gcPBM binding intensity (ln)": "8.23 ± 0.49"},
      {"sequence": "TATGTGTATTTATTTGCATGTTGGTTGTATTTTTTC [TGCATGCA_site479]", "gcPBM binding intensity (ln)": "7.82 ± 0.38"},
      {"sequence": "TAATAAAATAAAAATTGTACATTTTATATTTATCAA [XGTACX_site5134]", "gcPBM binding intensity (ln)": "7.38 ± 0.33"},
      {"sequence": "AATGAAAAAAAAAAAAAAAAGAAGAAGCAAATGGTA [TGCATGCA_negctrl_site335]", "gcPBM binding intensity (ln)": "7.56 ± 0.72"},
      {"sequence": "ATAAATAATTATATATGTACACATTATGAATGGATA [XGTACX_site8336]", "gcPBM binding intensity (ln)": "7.78 ± 0.4"},
      {"sequence": "AGATTATTTGGACATGCATGTAAAAAAATACGTATA [TGCATGCA_site972]", "gcPBM binding intensity (ln)": "7.76 ± 0.58"},
      {"sequence": "AAAATATTTAAGCATTGTACATATTTTTACAAATAC [XGTACX_site5349]", "gcPBM binding intensity (ln)": "7.66 ± 0.43"},
      {"sequence": "AAAATTCATCCAACAAGTACATAAATATAATATTAT [XGTACX_site4596]", "gcPBM binding intensity (ln)": "7.77 ± 0.35"},
      {"sequence": "GGAAAAAGAAATTAATGTACATGTGGATGTATGAGG [XGTACX_site5468]", "gcPBM binding intensity (ln)": "8.23 ± 0.64"},
      {"sequence": "TAGAAACCATAAAAATGTACTTAAAAATAGACAATT [XGTACX_site5007]", "gcPBM binding intensity (ln)": "7.77 ± 0.69"},
      {"sequence": "AAGAACAGATAAAATCGTACGTGAAACATGAACTTG [XGTACX_site7793]", "gcPBM binding intensity (ln)": "7.62 ± 0.77"},
      {"sequence": "TCTGAAATTTTAGGGGTGCCTGGGACTAAAGAAACG [GTGCAC_site9785]", "gcPBM binding intensity (ln)": "8.32 ± 0.51"},
      {"sequence": "ATACATAAATATTATTGTACATATATAATATTAATA [XGTACX_site3514]", "gcPBM binding intensity (ln)": "7.7 ± 0.33"},
      {"sequence": "TTTAATTCCCATATATGTACACAATTTCTTCTATAA [XGTACX_site1465]", "gcPBM binding intensity (ln)": "8.06 ± 0.4"},
      {"sequence": "AGACTTTTTATGAGCACACACATATATTATGGAGTA [CACACA_site1040]", "gcPBM binding intensity (ln)": "8.18 ± 0.54"},
      {"sequence": "ATAAATTCATTATATTGTACAAACAAATGAAAAAAA [XGTACX_site8304]", "gcPBM binding intensity (ln)": "7.72 ± 0.38"},
      {"sequence": "ATTTTTACTTTTTATGCATGCTATATTTTCAACCAT [TGCATGCA_site871]", "gcPBM binding intensity (ln)": "8.47 ± 0.82"},
      {"sequence": "ATTTTTTTTTTTTTATGTACATATTAAAAAAAATAT [XGTACX_site1829]", "gcPBM binding intensity (ln)": "7.78 ± 0.28"},
      {"sequence": "GGTATTACTTTTAGCTGTACTTATTTAAAAGTCAAA [XGTACX_site530]", "gcPBM binding intensity (ln)": "8.28 ± 0.2"},
      {"sequence": "ATTAAGGAAAAATTATGTACACAAAAACATATAACA [XGTACX_site2901]", "gcPBM binding intensity (ln)": "8.14 ± 0.45"},
      {"sequence": "TATACATGTTCAATTTGTACATATATAAATATATAT [XGTACX_site3554]", "gcPBM binding intensity (ln)": "7.64 ± 0.31"},
      {"sequence": "CTACACAAGCATTAAACACACAAAAGGGATACTTTG [CACACA_site1083]", "gcPBM binding intensity (ln)": "7.71 ± 0.64"},
      {"sequence": "ATTCAAAAAAATAAAATAAACATAAATAAACATAAA [TGCATGCA_negctrl_site390]", "gcPBM binding intensity (ln)": "7.55 ± 0.47"},
      {"sequence": "TATTTCTTTATTGGCACACATTTTTTCAATTATATA [CACACA_site4975]", "gcPBM binding intensity (ln)": "8.88 ± 0.28"},
      {"sequence": "GCAAATATGTTGATATGTACATATATATATATATAT [XGTACX_site445]", "gcPBM binding intensity (ln)": "9.21 ± 0.43"},
      {"sequence": "ATATACAAATATATATATATATATATATATATATAT [CACACA_negctrl_site886]", "gcPBM binding intensity (ln)": "9.14 ± 0.46"},
      {"sequence": "AAAAAATATACATATACACACATATGTATATATAAT [CACACA_site8676]", "gcPBM binding intensity (ln)": "7.57 ± 0.31"},
      {"sequence": "ATTATTTTAATAAAACGTACAAAATATAAATCAAAA [XGTACX_site3770]", "gcPBM binding intensity (ln)": "7.95 ± 0.54"}
    ]}
  ]
}
